Laboratory results reported in the supplement of paper PMC12217912.
This is one part of the list. The full chains were built here from the parent and the listed change. Inactive controls read about 0.05.

B1: TEV protease; numbered along this chain (parent)
chain: MGESLFKGPRDYNPISSSICHLTNESDGHTTSLYGIGFGPFIITNKHLFRRNNGTLVVQSLHGVFKVKDTTTLQQHLVDGRDMIIIRMPKDFPPFPQKLKFREPQREERICLVTTNFQTKSMSSMVSDTSCTFPSGDGIFWKHWIQTKDGQCGSPLVSTRDGFIVGIHSASNFTNTNNYFTSVPKNFMELLTNQEAQQWVSGWRLNADSVLWGGHKVFMVKPEEPFQPVKEATQL

Variants of: B1
Test: raw area under fraction-flipped curve 0-4 h after induction (AUC4h, not background-subtracted), DNA-recorder readout of cleavage of the substrate (dimensionless); higher = more cleavage of the substrate by the protease variant
Conditions: temperature: 34 °C; time window: 0-4 h after rhamnose induction
Description: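 In vivo DNA recorder in E. coli TOP10(DE3) ΔrhaA at 34 °C. Each TEVp single-site mutant (parent TEVp 0) is paired with a single-site variant of the 7-mer TEVs (canonical ENLYFQ|S). The substrate sits between flexible linkers in a Bxb1-sfGFP-TEVs-SsrA fusion, so cleavage stabilises Bxb1 and speeds flipping of a recombination array, read by NGS. The value is the raw area under the fraction-flipped curve over 0-4 h after rhamnose induction (AUC4h), with ≥20 reads per time point. It is not background-subtracted; inactive controls average about 0.047.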
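Also: Bxb1 expression induced with 0.2% (w/v) L-rhamnose at OD600 near 0.5, cultures sampled hourly, flipped fraction per protease–substrate barcode pair counted by paired-end Illumina sequencing.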

For L112S, the “area with substrate ENAYFQS” value was 0.0509, the “area with substrate ENCYFQS” value was 0.0452 and the “area with substrate ENDYFQS” value was 0.0668. For the same variant, the “area with substrate ENIYFQS” value was 0.0599, the “area with substrate ENKYFQS” value was 0.0818 and the “area with substrate ENMYFQS” value was 0.0634. The “area with substrate ENNYFQS” value was 0.0681, the “area with substrate ENPYFQS” value was 0.0692 and the “area with substrate ENQYFQS” value was 0.0603. For the same variant, the “area with substrate ENRYFQS” value was 0.0701, the “area with substrate ENSYFQS” value was 0.0802 and the “area with substrate ENWYFQS” value was 0.0479. The “area with substrate ENYYFQS” value was 0.0723.

For L112N, the “area with substrate ENAYFQS” value was 0.0524, the “area with substrate ENCYFQS” value was 0.0629 and the “area with substrate ENDYFQS” value was 0.057. The “area with substrate ENEYFQS” value was 0.063, the “area with substrate ENFYFQS” value was 0.0671 and the “area with substrate ENGYFQS” value was 0.061. The “area with substrate ENIYFQS” value was 0.0903, the “area with substrate ENKYFQS” value was 0.066 and the “area with substrate ENMYFQS” value was 0.0622. The “area with substrate ENNYFQS” value was 0.0637, the “area with substrate ENPYFQS” value was 0.0517 and the “area with substrate ENQYFQS” value was 0.0588. For the same variant, the “area with substrate ENRYFQS” value was 0.0593, the “area with substrate ENSYFQS” value was 0.0639 and the “area with substrate ENTYFQS” value was 0.0665. The “area with substrate ENWYFQS” value was 0.0078 and the “area with substrate ENYYFQS” value was 0.0544.

With L112H the “area with substrate ENAYFQS” value was 0.0584, the “area with substrate ENCYFQS” value was 0.0654 and the “area with substrate ENDYFQS” value was 0.0662. The “area with substrate ENEYFQS” value was 0.0649, the “area with substrate ENFYFQS” value was 0.0671 and the “area with substrate ENGYFQS” value was 0.0764. For the same variant, the “area with substrate ENIYFQS” value was 0.0552, the “area with substrate ENQYFQS” value was 0.062 and the “area with substrate ENRYFQS” value was 0.0636. The “area with substrate ENSYFQS” value was 0.0644, the “area with substrate ENTYFQS” value was 0.0764 and the “area with substrate ENVYFQS” value was 0.0679. The “area with substrate ENYYFQS” value was 0.0556.

For Q105W, the “area with substrate ENAYFQS” value was 0.0525, the “area with substrate ENCYFQS” value was 0.0602 and the “area with substrate ENDYFQS” value was 0.0599. The “area with substrate ENEYFQS” value was 0.0584, the “area with substrate ENFYFQS” value was 0.0619 and the “area with substrate ENGYFQS” value was 0.0679. For the same variant, the “area with substrate ENIYFQS” value was 0.0992, the “area with substrate ENKYFQS” value was 0.0639 and the “area with substrate ENNYFQS” value was 0.0739. The “area with substrate ENPYFQS” value was 0.0526, the “area with substrate ENQYFQS” value was 0.0802 and the “area with substrate ENRYFQS” value was 0.0536. The “area with substrate ENSYFQS” value was 0.0746, the “area with substrate ENTYFQS” value was 0.06 and the “area with substrate ENVYFQS” value was 0.0767.

In the case of Q105F, the “area with substrate ENAYFQS” value is reported as 0.0482, the “area with substrate ENDYFQS” value is reported as 0.0693 and the “area with substrate ENFYFQS” value is reported as 0.0591. The “area with substrate ENGYFQS” value was 0.0664, the “area with substrate ENHYFQS” value was 0.0772 and the “area with substrate ENIYFQS” value was 0.093. The “area with substrate ENMYFQS” value was 0.0847, the “area with substrate ENPYFQS” value was 0.0465 and the “area with substrate ENQYFQS” value was 0.055. For the same variant, the “area with substrate ENRYFQS” value was 0.0584, the “area with substrate ENSYFQS” value was 0.0393 and the “area with substrate ENTYFQS” value was 0.0494. The “area with substrate ENVYFQS” value was 0.0806 and the “area with substrate ENYYFQS” value was 0.0531.

In the case of R106D, the “area with substrate ENAYFQS” value is reported as 0.0464, the “area with substrate ENCYFQS” value is reported as 0.0921 and the “area with substrate ENDYFQS” value is reported as 0.0609. The “area with substrate ENEYFQS” value was 0.0579, the “area with substrate ENFYFQS” value was 0.0638 and the “area with substrate ENGYFQS” value was 0.0505. The “area with substrate ENHYFQS” value was 0.0703, the “area with substrate ENIYFQS” value was 0.108 and the “area with substrate ENMYFQS” value was 0.0711. For the same variant, the “area with substrate ENNYFQS” value was 0.0652, the “area with substrate ENPYFQS” value was 0.0498 and the “area with substrate ENQYFQS” value was 0.054. The “area with substrate ENRYFQS” value was 0.046, the “area with substrate ENSYFQS” value was 0.0568 and the “area with substrate ENTYFQS” value was 0.0634. The “area with substrate ENVYFQS” value was 0.0672, the “area with substrate ENWYFQS” value was 0.0445 and the “area with substrate ENYYFQS” value was 0.0676.

With P104M the “area with substrate ENAYFQS” value was 0.0468, the “area with substrate ENCYFQS” value was 0.0573 and the “area with substrate ENEYFQS” value was 0.0623. For the same variant, the “area with substrate ENFYFQS” value was 0.0558, the “area with substrate ENHYFQS” value was 0.0586 and the “area with substrate ENIYFQS” value was 0.0692. For the same variant, the “area with substrate ENKYFQS” value was 0.0549, the “area with substrate ENNYFQS” value was 0.0527 and the “area with substrate ENPYFQS” value was 0.0504. For the same variant, the “area with substrate ENQYFQS” value was 0.0548, the “area with substrate ENSYFQS” value was 0.0465 and the “area with substrate ENYYFQS” value was 0.0395.

For P104T, the “area with substrate ENAYFQS” value was 0.043, the “area with substrate ENCYFQS” value was 0.0667 and the “area with substrate ENDYFQS” value was 0.0547. The “area with substrate ENEYFQS” value was 0.0547, the “area with substrate ENFYFQS” value was 0.0716 and the “area with substrate ENGYFQS” value was 0.0593. The “area with substrate ENMYFQS” value was 0.0481, the “area with substrate ENPYFQS” value was 0.0541 and the “area with substrate ENRYFQS” value was 0.0555. The “area with substrate ENVYFQS” value was 0.0589 and the “area with substrate ENYYFQS” value was 0.0475.

With P104I the “area with substrate ENAYFQS” value was 0.0533, the “area with substrate ENCYFQS” value was 0.0485 and the “area with substrate ENDYFQS” value was 0.0521. For the same variant, the “area with substrate ENEYFQS” value was 0.0603, the “area with substrate ENFYFQS” value was 0.0601 and the “area with substrate ENGYFQS” value was 0.0598. For the same variant, the “area with substrate ENHYFQS” value was 0.0271, the “area with substrate ENIYFQS” value was 0.0607 and the “area with substrate ENKYFQS” value was 0.0595. For the same variant, the “area with substrate ENMYFQS” value was 0.0588, the “area with substrate ENNYFQS” value was 0.057 and the “area with substrate ENPYFQS” value was 0.0644. The “area with substrate ENQYFQS” value was 0.0525, the “area with substrate ENRYFQS” value was 0.0491 and the “area with substrate ENSYFQS” value was 0.0615. For the same variant, the “area with substrate ENTYFQS” value was 0.0569 and the “area with substrate ENVYFQS” value was 0.0602.

For P104L, the “area with substrate ENAYFQS” value was 0.044, the “area with substrate ENDYFQS” value was 0.0636 and the “area with substrate ENEYFQS” value was 0.0552. The “area with substrate ENFYFQS” value was 0.0511, the “area with substrate ENGYFQS” value was 0.0582 and the “area with substrate ENHYFQS” value was 0.0543. The “area with substrate ENIYFQS” value was 0.0553, the “area with substrate ENKYFQS” value was 0.0531 and the “area with substrate ENMYFQS” value was 0.0448. The “area with substrate ENNYFQS” value was 0.056, the “area with substrate ENQYFQS” value was 0.0545 and the “area with substrate ENRYFQS” value was 0.037. For the same variant, the “area with substrate ENSYFQS” value was 0.0546, the “area with substrate ENTYFQS” value was 0.0408 and the “area with substrate ENVYFQS” value was 0.0526.

For P104W, the “area with substrate ENAYFQS” value was 0.0507, the “area with substrate ENCYFQS” value was 0.0507 and the “area with substrate ENDYFQS” value was 0.0505. For the same variant, the “area with substrate ENEYFQS” value was 0.0483, the “area with substrate ENFYFQS” value was 0.0551 and the “area with substrate ENHYFQS” value was 0.0485. The “area with substrate ENKYFQS” value was 0.0369, the “area with substrate ENMYFQS” value was 0.0504 and the “area with substrate ENPYFQS” value was 0.0529. For the same variant, the “area with substrate ENQYFQS” value was 0.0554, the “area with substrate ENSYFQS” value was 0.0541 and the “area with substrate ENVYFQS” value was 0.0508. For the same variant, the “area with substrate ENYYFQS” value was 0.0438.

For P104D, the “area with substrate ENAYFQS” value was 0.0356, the “area with substrate ENDYFQS” value was 0.0381 and the “area with substrate ENEYFQS” value was 0.0467. The “area with substrate ENFYFQS” value was 0.0455, the “area with substrate ENHYFQS” value was 0.0512 and the “area with substrate ENIYFQS” value was 0.0607. For the same variant, the “area with substrate ENKYFQS” value was 0.0535, the “area with substrate ENMYFQS” value was 0.0442 and the “area with substrate ENNYFQS” value was 0.0742. For the same variant, the “area with substrate ENPYFQS” value was 0.048, the “area with substrate ENRYFQS” value was 0.0587 and the “area with substrate ENSYFQS” value was 0.0446. For the same variant, the “area with substrate ENTYFQS” value was 0.0511, the “area with substrate ENVYFQS” value was 0.0463 and the “area with substrate ENWYFQS” value was 0.0502. The “area with substrate ENYYFQS” value was 0.0525.
